Test results taken from patent publication US20180015075A1, “METHODS AND COMPOSITIONS FOR TREATMENT OF VENOUS MALFORMATION” (Children's Hospital Medical Center, priority 2016, published 2018).

How the values were obtained:
HUVEC (non-transfected) = assay: cells; details: Homo sapiens, read-out: Average proliferation Inhibition rate (%) HUVEC
HUVEC-TIE2-WT [1] = assay: cells; details: Homo sapiens; for inhibition at 20 µM: read-out: Average proliferation Inhibition rate (%) WT; for IC50: read-out: IC50 WT
HUVEC-TIE2-L914F [2] = assay: cells; details: Homo sapiens; for inhibition at 20 µM: read-out: Average proliferation Inhibition rate (%) L914F
HUVEC-TIE2-WT [3] = system: HUVEC-TIE2-WT
HUVEC-TIE2-L914F [4] = system: HUVEC-TIE2-L914F
HUVEC-TIE2-L914F [5] = assay: Apoptosis analysis (Annexin V flow cytometry); type: cell-based, human
[6] = system: TIE2, c-ABL, AKT, PLCγ1, ERK phosphorylation in HUVEC-TIE2-L914F; assay: Immunoblotting (Western blot) of treated cells; type: cell-based, human
HUVEC-TIE2-L914F [7] = assay: Cell cycle analysis; type: cell-based, human; details: 100 nM Ponatinib, 10 nM rapamycin or combination, 48 hours; DMSO control 56.29±4.06%

Molecule Cn1c(CCCC(=O)O)nc2cc(N(CCCl)CCCl)ccc21 [Bendamustine hydrochloride] has an inhibition at 20 µM (HUVEC (non-transfected)) of 3.19%, an inhibition at 20 µM (HUVEC-TIE2-WT [1]) of -0.61% and an inhibition at 20 µM (HUVEC-TIE2-L914F [2]) of 2.12%.

Cl.Nc1ccn([C@@H]2O[C@H](CO)[C@@H](O)[C@@H]2O)c(=O)n1 [Cytarabine hxdrochloride] was tested, and the “Average proliferation Inhibition rate (%) WT” value (HUVEC-TIE2-WT [3]; 20 uM) was 27.99% and the “Average proliferation Inhibition rate (%) L914F” value (HUVEC-TIE2-L914F [4]; 20 uM) was 30.30%.

In the case of Cc1ccc(C(=O)Nc2ccc(CN3CCN(C)CC3)c(C(F)(F)F)c2)cc1C#Cc1cnc2cccnn12 [Ponatinib, 3-(2-imidazo[1,2-b]pyridazin-3-ylethynyl)-4-methyl-N-[4-[(4-methyl-1-piperazinyl)methyl]-3-(trifluoromethyl)phenyl]-benzamide], the cell apoptosis (HUVEC-TIE2-L914F [5]) is reported as 25.43±4.67%, the “AKT activity (Ser437 and Thr308)” value [6] is reported as “inhibited AKT activity” and the “Activity of PLCγ1” value [6] is reported as “completely inhibited”. The “phosphorylation of TIE2 and ABL” value [6] was “decreased phosphorylation of TIE2 and ABL”, the “phosphorylation of TIE2 and c-ABL” value ([6]; 500 nM Ponatinib for 1 hour) was “diminished phosphorylation of both TIE2 and c-ABL” and the inhibition at 20 µM (HUVEC-TIE2-WT [1]) was 50.8%. It also gave an IC50 (HUVEC-TIE2-WT [1]) of 890 ± 240 nM, an inhibition at 20 µM (HUVEC-TIE2-L914F [2]) of 75.5% and an IC50 (HUVEC-TIE2-L914F [2]; read-out: IC50 L914F) of 420 ± 30 nM.

In the case of O=C1[O][Pt]2([NH][C@@H]3CCCC[C@H]3[NH]2)[O]C1=O [Oxaliplatin], the “Average proliferation Inhibition rate (%) WT” value (HUVEC-TIE2-WT [3]; 20 µM) is reported as 13.52% and the “Average proliferation Inhibition rate (%) L914F” value (HUVEC-TIE2-L914F [4]; 20 µM) is reported as 39.55%.

For CO[C@H]1C[C@@H]2CC[C@@H](C)[C@@](O)(O2)C(=O)C(=O)N2CCCC[C@H]2C(=O)O[C@H]([C@H](C)C[C@@H]2CC[C@@H](O)[C@H](OC)C2)CC(=O)[C@H](C)/C=C(\C)[C@@H](O)[C@@H](OC)C(=O)[C@H](C)C[C@H](C)/C=C/C=C/C=C/1C [Sirolimus, Rapamycin], the “G0/G1 phase cell population” value (HUVEC-TIE2-L914F [7]) was 83.99±4.58%, the cell apoptosis (HUVEC-TIE2-L914F [5]; 100 nM Ponatinib, 10 nM rapamycin or combination, 72 hours, vehicle 7.89±1.71%) was 13.00±5.02% and the “phosphorylation of TIE2 and ABL” value ([6]; 100 nM Ponatinib, 10 nM rapamycin, 48 and 72 hours) was “no effect”. It also gave an inhibition at 20 µM (HUVEC-TIE2-WT [1]) of 30.3%, an IC50 (HUVEC-TIE2-WT [1]) of under 30 nM and an inhibition at 20 µM (HUVEC-TIE2-L914F [2]) of 53.9%. For the same molecule, the IC50 (HUVEC-TIE2-L914F [2]; read-out: IC50 L914F) was under 30 nM and the IC50 (HUVEC-TIE2-L914F [2]; read-out: IC50 in HUVEC-TIE2-L914F) was under 30 nM.

For N.N.O=C([O-])C1(C(=O)[O-])CCC1.[Pt+2] [Carboplatin], the “Average proliferation Inhibition rate (%) WT” value (HUVEC-TIE2-WT [3]; 20 uM) was −3.94% and the “Average proliferation Inhibition rate (%) L914F” value (HUVEC-TIE2-L914F [4]; 20 uM) was 1.26%.

CNNCc1ccc(C(=O)NC(C)C)cc1.Cl [Procarbazine hxdrochloride] was tested, and the “Average proliferation Inhibition rate (%) WT” value (HUVEC-TIE2-WT [3]; 20 uM) was −3.53% and the “Average proliferation Inhibition rate (%) L914F” value (HUVEC-TIE2-L914F [4]; 20 uM) was 6.02%.

Where a name gives a salt, the structure may show the parent alone. Read-outs that look alike come from different tables or passages of the source.
